# From PMC4336329 (PLoS ONE, 2015)
# The whole screen tested about 310,000 compounds, of which about 14,000 (4.5%) showed an effect of 50% or more. The effect is printed as a negative number. The list shows a part of the results.
# Molecular target: human ether-à-go-go-related gene (hERG) potassium channel (human, UniProt Q12809)
# Assay: primary screen, population patch clamp on CHO cells stably expressing hERG
# 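Also: peak tail current of the secondary pulse compared with the same well before compound.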
# Sequence of human ether-à-go-go-related gene (hERG) potassium channel (Q12809 whole entry, looked up): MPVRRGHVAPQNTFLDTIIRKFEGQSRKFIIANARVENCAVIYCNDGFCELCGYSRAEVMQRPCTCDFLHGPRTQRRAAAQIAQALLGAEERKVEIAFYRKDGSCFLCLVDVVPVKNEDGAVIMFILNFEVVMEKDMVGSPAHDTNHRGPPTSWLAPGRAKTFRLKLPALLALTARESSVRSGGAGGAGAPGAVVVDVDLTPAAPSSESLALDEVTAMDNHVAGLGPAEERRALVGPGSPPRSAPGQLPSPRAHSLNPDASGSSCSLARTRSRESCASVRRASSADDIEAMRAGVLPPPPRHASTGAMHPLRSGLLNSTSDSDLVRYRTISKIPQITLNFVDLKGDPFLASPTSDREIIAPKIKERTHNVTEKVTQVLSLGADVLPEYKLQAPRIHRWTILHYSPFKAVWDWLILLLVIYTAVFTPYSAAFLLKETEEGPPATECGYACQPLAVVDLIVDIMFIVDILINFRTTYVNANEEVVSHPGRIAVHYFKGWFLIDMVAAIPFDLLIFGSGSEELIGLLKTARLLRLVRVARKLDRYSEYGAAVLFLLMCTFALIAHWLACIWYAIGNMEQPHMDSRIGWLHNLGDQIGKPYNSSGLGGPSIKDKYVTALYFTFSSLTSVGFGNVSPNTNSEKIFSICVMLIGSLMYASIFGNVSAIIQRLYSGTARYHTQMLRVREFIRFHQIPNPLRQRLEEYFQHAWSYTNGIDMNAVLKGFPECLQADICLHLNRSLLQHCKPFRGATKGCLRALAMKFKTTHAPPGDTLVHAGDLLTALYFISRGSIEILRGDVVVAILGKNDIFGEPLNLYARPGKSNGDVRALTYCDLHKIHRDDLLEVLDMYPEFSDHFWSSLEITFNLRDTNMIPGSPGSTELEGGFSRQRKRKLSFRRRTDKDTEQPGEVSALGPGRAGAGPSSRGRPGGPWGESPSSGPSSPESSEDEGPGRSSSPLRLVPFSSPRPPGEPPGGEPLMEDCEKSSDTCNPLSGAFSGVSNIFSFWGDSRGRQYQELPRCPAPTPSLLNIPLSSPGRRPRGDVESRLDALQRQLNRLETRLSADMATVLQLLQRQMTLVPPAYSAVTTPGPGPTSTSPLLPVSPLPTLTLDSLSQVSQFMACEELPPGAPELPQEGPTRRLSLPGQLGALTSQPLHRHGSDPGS
row,Compound,"hERG current change (%, negative = inhibition) at 10uM"
1,CCOC(=O)N1CCN(C(=O)c2ccc3c(=O)n(CCOC)c(=O)[nH]c3c2)CC1,25.8%
2,Nc1nnc(SCC(=O)N2CCN(Cc3ccccc3)CC2)s1,4.16%
3,COc1ccccc1CC(=O)NCC(c1ccco1)N1CCCCC1 (stereo not shown),8.83%
4,CCc1c(O)c(-c2ccccc2)c(=O)n(-c2ccccn2)c1-c1ccccc1,9.7%
5,CC1CC(C)CN(C(=O)c2ccc(CSc3nc4ccncc4[nH]3)cc2)C1 (stereo not shown),-8.69%
6,Fc1ccccc1/C=N/NC(=S)Nc1ccc(Cl)cc1Cl,8.62%
7,Cl.N=C(N)Sc1nc(N2CCCCC2)nc(N2CCCCC2)n1,16.7%
8,CC(Oc1cccc(Cl)c1)C(=O)Nc1ccc([N+](=O)[O-])cn1 (stereo not shown),-62.2%
9,NC(=O)C1CCN(CC(O)COCc2ccccc2Cl)CC1 (stereo not shown),18.8%
10,COc1cc(C(=O)OCC(=O)Nc2nnc(-c3ccccc3)o2)cc(OC)c1OC,2.63%
11,CCOc1cc(S(=O)(=O)NCc2ccco2)c(OCC)cc1-n1cnnn1,-10.8%
12,Cc1nn(C(C)C(=O)NCc2cccs2)c(C)c1[N+](=O)[O-] (stereo not shown),6.95%
13,CN(C)S(=O)(=O)c1ccc(NC(=O)CN2C(=O)NC3(CCCC3)C2=O)cc1,8.41%
14,CC1=C(C)Cc2c(OC(=O)c3ccccc3)ccc(OC(=O)c3ccccc3)c2C1,12.9%
15,CCOC(=O)c1ccc(NC(=S)N2CCSC2c2ccc(OC)cc2)cc1 (stereo not shown),3.01%
16,O=C(Nc1cccnc1Cl)c1cccc(F)c1,9.2%
17,CCCn1c2ccccc2c2cnn(CC(=O)NCCCN3CCCC(C)C3)c(=O)c21 (stereo not shown),-70.8%
18,CC(C(=O)N1CCOCC1)N1C(=O)C2C3C=CC(C4CC34)C2C1=O (stereo not shown),18%
19,NNC(=O)Cn1c(-c2nonc2N)nc2ccccc21,13.8%
20,Cc1ccc(CN2C3=NCCCN3c3ccccc32)cc1.Cl,-61.2%
21,Cn1nccc1NC(=O)CSCC(=O)O,16.9%
22,CCOc1ccc(OCc2ccc(C(=O)O)o2)cc1,10.2%
23,CCCCC(c1nnnn1Cc1ccco1)N1CCN(c2nc3ccccc3s2)CC1 (stereo not shown),-38.4%

row,Compound,"hERG current change (%, negative = inhibition) at 10uM"
1,C/C(=N\NC(=O)CSc1nc2ccccc2s1)c1ccco1,0.0885%
2,CCN(CC)CCNC(=O)C(=O)NCC1OCCN1S(=O)(=O)c1ccc2c(c1)OCCO2 (stereo not shown),-5.94%
3,CC(=O)Nc1ccccc1-c1nc2cc(C#N)c(C#N)cc2[nH]c1=O,-4.17%
4,CCOc1ccc(CNS(=O)(=O)c2ccc3c(c2)CC(=O)N3C)cc1,-1.45%
5,COC(=O)C1=CN(CC2CCCO2)C=C(C(=O)OC)C1c1ccccc1C(F)(F)F (stereo not shown),8.49%
6,CC(C)[C@H](NC(=O)c1ccccc1F)C(=O)NCCc1ccccc1,9.54%
7,O=C(CN1C(=O)NC2(CCCC2)C1=O)Nc1ccccc1,10.9%
8,COc1cccc(NC(=O)Nc2ccc3c(c2)nnn3C)c1,8.18%
9,Clc1ccc(-c2ncc3ccccn23)cc1,-4.95%
10,CCOC(=O)c1c(CN2CCN(Cc3ccccc3)CC2)n(C)c2cc(Br)c(OC)cc12,7.08%
11,COc1cc(OC)cc(-c2oc(=O)c3cc(OC)c(OC)cc3c2C#CCCCO)c1,16.8%
12,Brc1cc2[nH]cnc2c2ccccc12,7.91%
13,O=C(Nc1ccc2oc(=O)ccc2c1)c1ccco1,-2.37%
14,O=C(CCC(=O)n1ncc2ccccc21)NCc1ccc(F)cc1,-18.1%
15,COC(=O)c1ccc(OCC(O)CN2CCc3cc(OC)c(OC)cc3C2c2ccccc2)cc1 (stereo not shown),-40.4%
16,c1ccc(CCCN2CCN(c3ccccc3)CC2)cc1,-61.3%
17,CCOc1ccc2c(c1)C(=O)c1cc(OCC(=O)O)ccc1-2,7.08%
18,COc1ccc(CC(=O)NCCN2CCCC2)cc1.Cl,4.76%
19,CC1(C)NC(=O)N(CC(O)CN(c2cccc([N+](=O)[O-])c2)S(=O)(=O)c2ccccc2)C1=O (stereo not shown),3.98%
20,CC(OC(=O)CCc1nc2ccccc2c(=O)[nH]1)C(=O)NC1CCCC1 (stereo not shown),9.21%
21,COCCCn1c(N)c(C(=O)Nc2sc3c(c2C(=O)OC)CCCC3)c2nc3ccccc3nc21,2.24%
22,O=C(c1ccccc1C(F)(F)F)N1CCN(S(=O)(=O)c2ccccc2)CC1,23.6%
23,Brc1ccc(C2=NC(Cc3ccccc3)CO2)cc1 (stereo not shown),-2.02%

row,Compound,"hERG current change (%, negative = inhibition) at 10uM"
1,C(=N\N1CCN(Cc2ccccc2)CC1)/c1ccc(-c2ccccc2)cc1,-11.3%
2,COc1ccccc1N(CC(=O)NCc1ccccc1)S(C)(=O)=O,6.12%
3,O=C(NCc1cccnc1)c1cc(-c2ccco2)on1,8.02%
4,C/C(=N\NC(=O)c1ccc(CSc2nncn2C)cc1)c1ccc2ccccc2c1,11.9%
5,Cc1ccc(NS(=O)(=O)c2cc(OCC(N)=O)c(C)cc2Cl)cc1,0.202%
6,CC(=O)Oc1ccc(C(=O)Nc2cccc(C(=O)c3ccc(C)c(C)c3)c2)cc1,-46.2%
7,Nn1c(SCC(=O)Nc2ccc(F)cc2)nnc1C1CCCCC1,-9.96%
8,Cc1noc(C)c1COc1ccccc1C(=O)N1CCN(c2cccc(C(F)(F)F)c2)CC1,-38%
9,CCOC(=O)c1ccc(N/C=C2/CCCC(C)C2=O)cc1 (stereo not shown),16%
10,CCn1c(SCC(=O)NCCc2ccc(F)cc2)nnc1-c1cccs1,-61.9%
11,Cc1cc(-c2ccc(C)c(S(=O)(=O)NCCC(C)N3CCCCCC3)c2)on1 (stereo not shown),-11.6%
12,Nc1nc(SCc2cccc(Br)c2)n[nH]1,8.49%
13,Cc1ccc(-n2nnnc2SC(C)C(=O)Nc2ccc(Cl)cn2)cc1 (stereo not shown),-22.1%
14,CCc1nnc(NC(=O)CCC(=O)NCc2ccccc2Cl)s1,-0.367%
15,CC(=O)c1ccc(OCC(O)CN2CCN(CC(O)COc3ccc(C(C)=O)cc3)CC2)cc1 (stereo not shown),-39.4%
16,CCc1cccc(C)c1NC(=O)Cn1nc(C)n2cccc2c1=O,22.9%
17,COc1ccccc1N1C(=O)c2ccc(C(=O)Nc3nccs3)cc2C1=O,17.5%
18,COc1ccccc1NC(=O)CSc1nc(N)c(C#N)cc1C#N,17.5%
19,N#Cc1cc2c(nc1SCC1COc3ccccc3O1)CCC2 (stereo not shown),-7.43%
20,COc1ccccc1CN1CC(C(=O)NCc2cc(C)on2)CCC1=O (stereo not shown),15.1%
21,Cc1ccccc1N(C(=O)CCC(=O)Nc1ccccn1)C(C(=O)NC(C)C)c1ccc(F)cc1 (stereo not shown),7.84%
22,Cc1ccc(-n2c(SCC(=O)Nc3cc(C)on3)nc3c([nH]c4ccccc43)c2=O)cc1,2.04%
23,Cc1ccc(OC(=O)Nc2ccccc2)cc1,7.21%

row,Compound,"hERG current change (%, negative = inhibition) at 10uM"
1,COc1cccc(NC(=O)c2cnc[nH]2)c1,25.1%
2,CC(C)OCCCNC(=O)C1CCN(S(=O)(=O)c2ccc3nc4c(c(C(=O)O)c3c2)CCCCC4)CC1,30.8%
3,Cc1cc(C(=O)N2CCCC(N3CCN(c4cccc(Cl)c4)CC3)C2)no1 (stereo not shown),-27.8%
4,CCCCN1CN(Cc2ccccc2)CNC1=S,14.9%
5,O=C(CSc1ncn[nH]1)NC12CC3CC(CC(C3)C1)C2,-5.91%
6,O=C1NC(=S)N/C1=C/c1cccnc1,4.46%
7,CCOC(=O)C1CCN(Cc2nc(-c3ccc(OC)c(OC)c3)no2)CC1,2.83%
8,COC(=O)CC(NS(=O)(=O)c1cccs1)c1ccccc1Cl (stereo not shown),23.3%
9,NNC1=[NH+][C@H]2CS(=O)(=O)C[C@H]2S1.[Br-],11.8%
10,CC(C)=C1C2CCC1C(C(=O)NCc1ccccc1)C2C(=O)O (stereo not shown),14.8%
11,CCCN(C(=O)CSc1cc(-c2ccccc2)c2ccc(OC)cc2n1)C1CCS(=O)(=O)C1 (stereo not shown),4.44%
12,O=C(CCN1C(=O)/C(=C/c2cccc(Br)c2)SC1=S)Nc1cccnc1,11%
13,CCOC(=O)Cn1nc(C)c2ccccc2c1=O,2.58%
14,COc1ccccc1CCNC(=O)C(=O)c1cn(CC(=O)N2CCCC2)c2ccccc12,-7.5%
15,Cc1ccccc1C(=O)OCC(=O)N(C)c1ccccc1,-11.6%
16,O=C(Cn1cnc2ccccc21)N/N=C/c1cccc([N+](=O)[O-])c1,1.93%
17,CC(C)NC(=O)C1CC=CCC1C(=O)O (stereo not shown),1.83%
18,CCc1ccc(NC(=S)N(CCOC)C2CCN(C(C)=O)CC2)cc1,12.5%
19,CCOC(=O)Cn1c(=S)[nH]c2c(oc3ccc(Cl)cc32)c1=O,8.1%
20,NNC(=O)c1csc(CS(=O)(=O)c2ccc(Cl)cc2)n1,-2.1%
21,O=S(=O)(NCCc1cn2ccccc2n1)c1ccc(F)c(C(F)(F)F)c1,-48.8%
22,Cc1ccc(CNC(=O)CCNS(=O)(=O)c2ccc(C)cc2)cc1,-0.111%
